# According to ChEMBL document CHEMBL4888484, “Replenishing the malaria drug discovery pipeline: Screening and hit evaluation of the MMV Hit Generation Library 1 (HGL1) against asexual blood stage Plasmodium falciparum ,using a nano luciferase reporter read-out” (2022):
# The whole screen tested about 150,000 compounds, of which about 540 (0.36%) showed an effect of 50% or more. The list shows a part of the results.
# Test system: Plasmodium falciparum
# Assay: Primary screen in NF54 nanoGlo assay, in single point, at 2uM, 72h; a lower Z score goes with more inhibition
# Format: functional, Erythrocyte
# Settings: timepoint 72 hour
Structure (SMILES),% Inhibition [%],Z score
Cc1c(S(=O)(=O)NC2CC2)c(C)n(C)c1-c1nnc(C2CCC2)o1,-9,1.49
Cc1cc(S(=O)(=O)N2CCCO2)ccc1F,-10,1.11
CCc1cnc(N)nc1NCCOc1nonc1C,-9,1.41
C[C@@H](CCc1ccccc1)N1CCn2ccnc2C1,19,-2.68
COCC(=O)NC[C@H]1CC(C(=O)OC(C)(C)C)C[C@H]1O (stereo partly drawn),-6,0.88
O=C(Nc1ccc2ncnc(N3CCCCC3)c2c1)C1CCCCC1,-12,1.18
Cc1cccc(N2C(=O)c3ccc(C(=O)c4ccc5c(c4)C(=O)N(c4cccc(C)c4)C5=O)cc3C2=O)c1,-9,1.15
c1ccc(Cn2ccnc2-c2nnn[nH]2)cc1 [BENTEMAZOLE],18,-2.13
CCn1nccc1CN(C)CC(=O)Nc1ccon1,2,-0.43
O=S(=O)(N1CCOCC1)N1CCC[C@H]1c1ccc(Cl)c(Cl)c1,-15,1.94
Cc1ccc(-n2nc(-c3noc(CCC(=O)Nc4ccc(F)cc4F)n3)c(=O)n(C)c2=O)cc1,-16,2.78
O=C(NCCOc1ccccc1)NCC1CN2CCCC2CO1 (stereo not drawn),-11,2.14
COc1cc2c(cc1OC)CN(C(=O)Cn1c(C)nc(C#N)c1C#N)CC2,-2,0.18
O=C(Nc1ccc2c(c1)OCO2)N1CCN(S(=O)(=O)c2ccc(Cl)cc2)CC1,-8,0.98
Cc1nc(NC(=O)Cn2cc(C(F)(F)F)ccc2=O)sc1C,3,-0.47
O=C(NCN1CCOCC1)c1cccnc1,-14,1.73
c1ccc(N2CCN(Cc3cc(CC4(NC5CCOCC5)COC4)no3)CC2)cc1,1,-0.11
CCCN1C[C@@H](Nc2cc(COC)ncn2)CC1=O,-7,1.18
CCNC(=O)N(C)Cc1nccn1CC(F)(F)F,-14,1.87
CC(C)NC(=O)N1CCC2(CC1)C[C@@H](CC(=O)NC1CCC1)CCO2,-9,1.05
CCc1cn[nH]c1[C@H]1CCCN(C(=O)c2cc(C)n3nc(C)cc3n2)C1,-11,2.03
CN(C)CCNC(=O)c1cc2cc(S(=O)(=O)N(C)C)ccc2n1Cc1ccncc1,-14,1.93

Structure (SMILES),% Inhibition [%],Z score
c1cncc(OCc2cnc3ccccn23)c1,43,-5.49
N#Cc1cccc(C#N)c1N1CCC(NCCOc2ccccc2)CC1,-7,0.74
Cc1nccc(C(C)(C)C)c1/C(N)=N\O,-15,1.88
CNS(=O)(=O)N1CCC(C(=O)N2CCCc3ccccc3C2)CC1,-6,1.15
Nc1n[nH]c2ccc(-c3cc(F)cc4cccnc34)cc12,-14,2.7
Fc1ccc(Cl)c(CN2CCC(c3nnc[nH]3)CC2)c1,-6,0.58
NCCO[C@H]1C[C@@H](O)C12CCN(C(=O)CO)CC2,-6,1.1
O=C(Nc1ccc(F)c(F)c1)c1ncccn1,-30,2.6
COc1ccc(NC(=O)c2cnn3c2NC(C(=O)O)=C[C@H]3c2ccccc2F)cc1,-3,0.49
COc1cccc(C(=O)N2CCN(c3nc(CN4CCN(c5ccccc5OC)CC4)cc(=O)[nH]3)CC2)c1,-19,1.82
CCN(CCC(F)(F)F)C(=O)NCc1ccc(C#N)cc1,-5,0.64
Cc1nc(-c2ccnn2C)c2cnn(C)c2n1,-15,1.62
Cc1ncc(CCN2C(=O)NC3(CCCC3)C2=O)s1,13,-1.23
Cn1cnc2c1CCN(C[C@H](O)c1ccccc1Cl)C2,0,0.04
COc1ccc([C@H](C)NC(=O)C2CCN(S(=O)(=O)c3ccc4c(c3)OCCO4)CC2)cc1F,-11,1.29
CC(C)(Cc1ccccc1)NC(=O)C(C)(C)C,-7,1.33
NC(=NCc1ncccc1F)N1CCCCCC1,-8,1.1
CN(C)c1ccc(C(=O)N2CC[C@H](c3cccs3)C2)cc1,-16,3.13
CCOC(=O)C1CCN(C(=O)c2cnc(-c3ccc(OC)cc3)nc2N2CCN(CC)CC2)CC1,-24,2.16
O=C(c1ccc(Cn2ccccc2=O)o1)N1CCN(S(=O)(=O)c2c(Cl)cccc2Cl)CC1,-14,1.93
Cn1nc(-c2ccccc2)c(CN(CC2CC2)C[C@@H](O)Cc2ccccc2)c1Oc1ccc(Cl)cc1,3,-0.34
N#Cc1cc2ccccc2nc1N1CCO[C@H](c2ccccc2)C1,7,-0.96
